In the supplement of paper PMC12217912:
The list shows a part of the results. Sequences were assembled here from the parent chain. Values near 0.05 are background.

B1: TEV protease; numbered along this chain (parent)
chain: MGESLFKGPRDYNPISSSICHLTNESDGHTTSLYGIGFGPFIITNKHLFRRNNGTLVVQSLHGVFKVKDTTTLQQHLVDGRDMIIIRMPKDFPPFPQKLKFREPQREERICLVTTNFQTKSMSSMVSDTSCTFPSGDGIFWKHWIQTKDGQCGSPLVSTRDGFIVGIHSASNFTNTNNYFTSVPKNFMELLTNQEAQQWVSGWRLNADSVLWGGHKVFMVKPEEPFQPVKEATQL

Variants of: B1
Test: raw area under fraction-flipped curve 0-4 h after induction (AUC4h, not background-subtracted), DNA-recorder readout of cleavage of the substrate (dimensionless); higher = more cleavage of the substrate by the protease variant
Conditions: temperature: 34 °C; time window: 0-4 h after rhamnose induction
Description: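 In vivo DNA recorder in E. coli TOP10(DE3) ΔrhaA at 34 °C. Each TEVp single-site mutant (parent TEVp 0) is paired with a single-site variant of the 7-mer TEVs (canonical ENLYFQ|S). The substrate sits between flexible linkers in a Bxb1-sfGFP-TEVs-SsrA fusion, so cleavage stabilises Bxb1 and speeds flipping of a recombination array, read by NGS. The value is the raw area under the fraction-flipped curve over 0-4 h after rhamnose induction (AUC4h), with ≥20 reads per time point. It is not background-subtracted; inactive controls average about 0.047.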
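Note: Bxb1 expression induced with 0.2% (w/v) L-rhamnose at OD600 near 0.5, cultures sampled hourly, flipped fraction per protease–substrate barcode pair counted by paired-end Illumina sequencing.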

| Variant | area with substrate ENLYFQA | area with substrate ENLYFQC | area with substrate ENLYFQF | area with substrate ENLYFQH | area with substrate ENLYFQI | area with substrate ENLYFQK | area with substrate ENLYFQL | area with substrate ENLYFQM | area with substrate ENLYFQN | area with substrate ENLYFQP | area with substrate ENLYFQQ | area with substrate ENLYFQR | area with substrate ENLYFQS | area with substrate ENLYFQV | area with substrate ENLYFQW | area with substrate ENLYFQD | area with substrate ENLYFQY | area with substrate ENLYFQT | area with substrate ENLYFQE | area with substrate ENLYFQG |
| --- | --- | --- | --- | --- | --- | --- | --- | --- | --- | --- | --- | --- | --- | --- | --- | --- | --- | --- | --- | --- |
| MGESLFKGPRDYNPISSSICHLTNESDGHTTSLYGIGFGPFIITNKHLFRRNNGTLVVQSLHGVFKVKDTTTLQQHLVDGRDMIIIRMPKDFPPFPQKLKFREPQREERICLVTTNFQTKSMSSMVSDTSCTFPSGDGINWKHWIQTKDGQCGSPLVSTRDGFIVGIHSASNFTNTNNYFTSVPKNFMELLTNQEAQQWVSGWRLNADSVLWGGHKVFMVKPEEPFQPVKEATQL [F140N] | 0.0594 | 0.0605 | 0.0675 | 0.0555 | 0.0584 | 0.0665 | 0.0644 | 0.0816 | 0.0512 | 0.0503 | 0.0718 | 0.0537 | 0.0599 | 0.0678 | 0.0532 | – | – | – | – | – |
| MGESLFKGPRDYNPISSSICHLTNESDGHTTSLYGIGFGPFIITNKHLFRRNNGTLVVQSLHGVFKVKDTTTLQQHLVDGRDMIIIRMPKDFPPFPQKLKFREPQREERICLVTTNFQTKSMSSMVSDTMCTFPSGDGIFWKHWIQTKDGQCGSPLVSTRDGFIVGIHSASNFTNTNNYFTSVPKNFMELLTNQEAQQWVSGWRLNADSVLWGGHKVFMVKPEEPFQPVKEATQL [S130M] | 0.0921 | 0.0839 | – | 0.0646 | 0.056 | 0.0644 | 0.0685 | 0.0803 | 0.0354 | – | – | – | 0.0931 | – | – | 0.101 | – | – | – | – |
| MGESLFKGPRDYNPISSSICHLTNESDGHTTSLYGIGFGPFIITNKHLFRRNNGTLVVQSLHGVFKVKDTTTLQQHLVDGRDMIIIRMPKDFPPFPQKLKFREPQREERICLVTTNFQTKSMSSMVSDTHCTFPSGDGIFWKHWIQTKDGQCGSPLVSTRDGFIVGIHSASNFTNTNNYFTSVPKNFMELLTNQEAQQWVSGWRLNADSVLWGGHKVFMVKPEEPFQPVKEATQL [S130H] | 0.123 | – | 0.0629 | – | – | 0.0668 | – | – | – | – | – | 0.0747 | 0.0931 | 0.0649 | 0.0689 | 0.0655 | 0.0856 | – | – | – |
| MGESLFKGPRDYNPISSSICHLTNESDGHTTSLYGIGFGPFIITNKHLFRRNNGTLVVQSLHGVFKVKDTTTLQQHLVDGRDMIIIRMPKDFPPFPQKLKFREPQREERICLVTTNFQTKSMSSMVSDTSCTAPSGDGIFWKHWIQTKDGQCGSPLVSTRDGFIVGIHSASNFTNTNNYFTSVPKNFMELLTNQEAQQWVSGWRLNADSVLWGGHKVFMVKPEEPFQPVKEATQL [F133A] | 0.101 | 0.125 | 0.0758 | – | – | – | 0.0609 | 0.0877 | 0.0756 | 0.0764 | – | 0.0672 | 0.103 | 0.0589 | 0.0977 | – | – | 0.0668 | – | – |
| MGESLFKGPRDYNPISSSICHLTNESDGHTTSLYGIGFGPFIITNKHLFRRNNGTLVVQSLHGVFKVKDTTTLQQHCVDGRDMIIIRMPKDFPPFPQKLKFREPQREERICLVTTNFQTKSMSSMVSDTSCTFPSGDGIFWKHWIQTKDGQCGSPLVSTRDGFIVGIHSASNFTNTNNYFTSVPKNFMELLTNQEAQQWVSGWRLNADSVLWGGHKVFMVKPEEPFQPVKEATQL [L77C] | 0.0786 | 0.083 | – | 0.0715 | 0.0617 | 0.0849 | 0.0579 | – | 0.0718 | 0.0613 | – | 0.0573 | 0.0876 | 0.0536 | 0.102 | – | – | 0.0697 | 0.0587 | 0.0871 |
| MGESLFKGPRDYNPISSSICHLTNESDGHTTSLYGIGFGPFIITNKHLFRRNNGTLVVQSLHGVFKVKDTTTLQQHLVDSRDMIIIRMPKDFPPFPQKLKFREPQREERICLVTTNFQTKSMSSMVSDTSCTFPSGDGIFWKHWIQTKDGQCGSPLVSTRDGFIVGIHSASNFTNTNNYFTSVPKNFMELLTNQEAQQWVSGWRLNADSVLWGGHKVFMVKPEEPFQPVKEATQL [G80S] | 0.0715 | 0.101 | 0.0516 | – | 0.0581 | – | 0.0686 | – | 0.0604 | – | – | 0.0685 | 0.0895 | – | – | – | – | 0.0664 | – | – |
| MGESLFKGPRDYNPISSSICHLTNESDGHTTSLYGIGFGPFIITNKHLFRRNNGTLVVQSLHGVFKVKDTTTLQQHLVDGRDMIIIRMPKDFPPFPQKLKFREPQREERICLVTTNFQTKSMSSMVSDTSCTFPSGDGIFWKHWIQTKDGQCGSPLVSTRIGFIVGIHSASNFTNTNNYFTSVPKNFMELLTNQEAQQWVSGWRLNADSVLWGGHKVFMVKPEEPFQPVKEATQL [D161I] | 0.06 | 0.0594 | – | 0.0625 | 0.0496 | 0.0623 | 0.0506 | 0.051 | – | 0.0539 | 0.0556 | 0.0445 | 0.0541 | 0.0636 | 0.0632 | – | 0.0391 | 0.0538 | – | 0.0663 |
| MGESLFKGPRDYNPISSSICHLTNESDGHTTSLYGIGFGPFIITNKHLFRRLNGTLVVQSLHGVFKVKDTTTLQQHLVDGRDMIIIRMPKDFPPFPQKLKFREPQREERICLVTTNFQTKSMSSMVSDTSCTFPSGDGIFWKHWIQTKDGQCGSPLVSTRDGFIVGIHSASNFTNTNNYFTSVPKNFMELLTNQEAQQWVSGWRLNADSVLWGGHKVFMVKPEEPFQPVKEATQL [N52L] | 0.0637 | 0.0638 | 0.0403 | – | 0.0587 | 0.0705 | – | 0.0607 | 0.0793 | 0.0648 | – | 0.0374 | 0.0677 | 0.066 | – | 0.0674 | 0.0481 | 0.0551 | 0.0624 | 0.067 |
| MGESLFKGPRDYNPISSSICHLTNESDGHTTSLYGIGFGPFIITNKHLFRRNNGLLVVQSLHGVFKVKDTTTLQQHLVDGRDMIIIRMPKDFPPFPQKLKFREPQREERICLVTTNFQTKSMSSMVSDTSCTFPSGDGIFWKHWIQTKDGQCGSPLVSTRDGFIVGIHSASNFTNTNNYFTSVPKNFMELLTNQEAQQWVSGWRLNADSVLWGGHKVFMVKPEEPFQPVKEATQL [T55L] | 0.0818 | 0.103 | – | 0.0739 | 0.0571 | 0.0667 | 0.0563 | 0.082 | – | 0.0492 | 0.0614 | 0.0572 | 0.0891 | 0.0628 | 0.0607 | – | – | 0.064 | 0.0543 | – |
